# Measurements reported in the antibiotic and cytotoxicity screens of Wong et al. (2023).
# Some of the results follow.
# Key:
# [1] = system: HSkMC (human skeletal muscle cells); assay: cytotoxicity call (relative viability < 0.9); details: 10 µM
# [2] = system: S. aureus RN4220; assay: growth inhibition call (relative growth <= 0.2); details: 50 µM
Structure (SMILES),cytotoxicity call [1],growth inhibition call [2]
CC(C)C[C@@H]1C(=O)N2CCC[C@@H]2[C@]2(O)O[C@@](NC(=O)[C@@H]3C=C4c5cccc6[nH]c(Br)c(c56)C[C@@H]4N(C)C3)(C(C)C)C(=O)N12,inactive,inactive
C1CCC(NC2CCCCC2)CC1,inactive,inactive
N[C@@]1(C(=O)O)CC[C@@H](C(=O)O)C1.N[C@]1(C(=O)O)CC[C@H](C(=O)O)C1,inactive,inactive
Cc1cc([C@@H](C#N)c2ccc(Cl)cc2)c(Cl)cc1NC(=O)c1cc(I)cc(I)c1O,active,inactive
O=C(O)[C@H]1[C@H](C(=O)O)[C@H]2CC[C@@H]1O2,inactive,inactive
COCCCNC(=O)[C@]1(Cc2ccccc2N=[N+]=[N-])N=C(c2ccc(OCCCO)cc2)O[C@@H]1c1ccccc1N=[N+]=[N-],inactive,inactive
c1cnc(N2CCOC[C@@]3(CCCNC3)C2)cn1,inactive,inactive
C/C=C(\C)C(=O)O[C@H]1C[C@@H](OC(C)=O)[C@@]2(C(=O)OC)CO[C@H]3[C@@H](O)[C@@](C)([C@]45O[C@@]4(C)[C@H]4C[C@@H]5O[C@H]5OC=C[C@@]54O)[C@H]4[C@]1(CO[C@]4(O)C(=O)OC)[C@@H]32,inactive,inactive
CCC1(O)CC(O)c2c(cc3c(c2O)C(=O)c2c(O)ccc(O)c2C3=O)C1C(=O)OC (stereo not given),inactive,inactive
CC[C@H]1/C=C/C=C/C[C@@H](C)[C@H](O)[C@@](C)(O)C(=O)[C@@H](C)[C@H](O)[C@@H](C)C(=O)[C@@H](C)[C@H](O)[C@@H](C)/C=C/C(=O)O[C@@H]2[C@H](C)[C@H](CC1)O[C@]1(CC[C@H](C)[C@H](C[C@@H](C)O)O1)[C@H]2C,active,inactive
